These results are taken from publication PMC4336329 (PLoS ONE, 2015).

Molecules are shown by their SMILES. Among all 310,000 compounds or so, about 14,000 (4.5%) showed an effect of 50% or more. Effects have a minus sign here. Some of the results follow.
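Further: peak tail current of the secondary pulse compared with the same well before compound.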

The target of the assay is human ether-à-go-go-related gene (hERG) potassium channel (human, UniProt Q12809). Nature of the assay: primary screen, population patch clamp on CHO cells stably expressing hERG.
Chain of human ether-à-go-go-related gene (hERG) potassium channel (Q12809 whole entry, looked up): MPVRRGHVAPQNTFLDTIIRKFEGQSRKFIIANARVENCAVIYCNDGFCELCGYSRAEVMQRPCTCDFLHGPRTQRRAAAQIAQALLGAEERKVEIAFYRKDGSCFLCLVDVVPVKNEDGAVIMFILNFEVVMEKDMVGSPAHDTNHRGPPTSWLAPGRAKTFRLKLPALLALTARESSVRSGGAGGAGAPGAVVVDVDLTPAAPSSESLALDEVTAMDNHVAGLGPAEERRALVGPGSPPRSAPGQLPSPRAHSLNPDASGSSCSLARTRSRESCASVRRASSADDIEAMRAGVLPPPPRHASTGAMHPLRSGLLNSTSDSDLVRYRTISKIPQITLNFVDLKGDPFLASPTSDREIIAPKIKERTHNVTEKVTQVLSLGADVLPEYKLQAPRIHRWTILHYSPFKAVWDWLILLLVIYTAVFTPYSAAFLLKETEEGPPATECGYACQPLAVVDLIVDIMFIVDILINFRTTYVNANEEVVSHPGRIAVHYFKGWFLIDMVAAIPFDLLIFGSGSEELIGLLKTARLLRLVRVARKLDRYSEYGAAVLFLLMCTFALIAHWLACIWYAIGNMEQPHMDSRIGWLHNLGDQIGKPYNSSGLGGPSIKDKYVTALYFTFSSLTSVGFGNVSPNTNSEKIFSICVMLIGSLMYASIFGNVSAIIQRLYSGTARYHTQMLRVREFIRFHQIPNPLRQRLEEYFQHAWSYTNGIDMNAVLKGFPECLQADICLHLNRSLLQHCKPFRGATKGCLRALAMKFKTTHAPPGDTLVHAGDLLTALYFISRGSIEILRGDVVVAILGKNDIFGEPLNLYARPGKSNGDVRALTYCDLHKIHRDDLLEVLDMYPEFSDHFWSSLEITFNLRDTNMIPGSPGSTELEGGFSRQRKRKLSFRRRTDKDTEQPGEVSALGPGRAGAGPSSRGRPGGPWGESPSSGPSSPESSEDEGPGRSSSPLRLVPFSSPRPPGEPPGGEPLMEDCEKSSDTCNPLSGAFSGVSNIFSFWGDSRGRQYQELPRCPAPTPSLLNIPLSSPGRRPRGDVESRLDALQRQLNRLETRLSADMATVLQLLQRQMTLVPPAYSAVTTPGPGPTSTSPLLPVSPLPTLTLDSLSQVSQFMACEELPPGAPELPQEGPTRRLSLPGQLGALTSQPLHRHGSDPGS
On to `Cn1nccc1C(=O)N1CCN(S(=O)(=O)c2ccc(Br)s2)CC1`, for which the “hERG current change (%, negative = inhibition) at 10uM” value turned out to be 0.853%.
As to `C=C(C)C(=O)Nc1ccc(OC(F)(F)C(F)F)c(NC(=O)C(=C)C)c1`, the “hERG current change (%, negative = inhibition) at 10uM” value was found to be 3.49%.
Turning to `CCOCCSc1n[nH]c(=O)n1CCc1ccccc1`, the “hERG current change (%, negative = inhibition) at 10uM” value turned out to be 11.1%.
`COc1ccc(C)cc1NC(=O)CN1CCN(c2ccccc2F)CC1`: the “hERG current change (%, negative = inhibition) at 10uM” value is -10.3%.
Take `O=[N+]([O-])c1cccc2ccc(N3CCOCC3)nc12`: the “hERG current change (%, negative = inhibition) at 10uM” value stood at 7.51%.
For the compound `COC(=O)C1=C(N)Oc2cc(C)oc(=O)c2C1c1cccnc1` (stereo not shown), the “hERG current change (%, negative = inhibition) at 10uM” value was -16.1%.
As to `CC(OC(=O)c1nn(C)c(=O)c2ccccc12)C(=O)NC1CCCCC1C` (stereo not shown), the “hERG current change (%, negative = inhibition) at 10uM” value is recorded as -3.75%.
The result for `CCn1nc(C)cc1C(=O)N1CCc2c([nH]c3ccccc23)C1c1cc(F)ccc1F` (stereo not shown) reads -1.16%.
Take `COC(=O)c1cc(CC(=O)c2ccc(O)cc2O)c(C)o1`: the “hERG current change (%, negative = inhibition) at 10uM” value was found to be 8.21%.
On to `Cc1ncoc1C(=O)N1CCCC(C(=O)c2cccc3ccccc23)C1` (stereo not shown), for which the “hERG current change (%, negative = inhibition) at 10uM” value was 5.95%.
As to `Cc1nc(NCCCO)c(C#N)c2c1COC(C)(C)C2`, the “hERG current change (%, negative = inhibition) at 10uM” value is on record as -15%.
On to `Cc1cc(NC(=O)C(C)SCC(=O)Nc2nc3c(F)cc(F)cc3s2)no1` (stereo not shown), for which the “hERG current change (%, negative = inhibition) at 10uM” value is 14.2%.
`O=C(CS(=O)CC(=O)Nc1cccc2c1CCCC2)Nc1ccc(F)cc1` (stereo not shown): the “hERG current change (%, negative = inhibition) at 10uM” value came to 16.6%.
The result for `COc1ccc2nc(NC(=O)c3ccco3)sc2c1` reads 2.66%; that for `CCOc1ccc(N(Cc2ccc(OC)cc2)C(=O)c2ccco2)cc1`, -35.9%; that for `Cc1ccc(C(C(=O)NC2CCCCC2)N2CCOCC2)cc1` (stereo not shown), 1.7%.
Under `CC(N=Cc1cccc(O)c1O)c1ccccc1` (stereo not shown) stands -4.41%; under `S=c1[nH]nc(-c2ccco2)n1/N=C/c1c(Cl)cccc1Cl`, -10.9%.
For `CN(CC(=O)Nc1cccc2c1CCCC2)S(=O)(=O)c1ccc(Br)cc1`, the “hERG current change (%, negative = inhibition) at 10uM” value amounted to 2.3%.
As for `O=c1c2ccc(Cl)cc2[nH]c(=S)n1-c1cccnc1`, the “hERG current change (%, negative = inhibition) at 10uM” value was determined as 20.7%.
Under `Cc1c(CCO)sc[n+]1CC(=O)OCCC12CC3CC(CC(C3)C1)C2.[Cl-]` stands 11.8%; under `COc1ccc(N2CCN(C(=O)c3oc4ccccc4c3NC(=O)Cc3ccc(OC)c(OC)c3)CC2)cc1`, -28.7%.
For `COc1cccc(NC(=O)CN(C)C(=O)c2ccccc2-c2nc3ccccc3s2)c1`, the “hERG current change (%, negative = inhibition) at 10uM” value is -22.5%.
`O=C(CNC(=O)/C(=C\c1ccc(F)cc1)NC(=O)c1ccccc1)OCc1ccccc1`: the “hERG current change (%, negative = inhibition) at 10uM” value was -80.7%.
The result for `O=C(CSc1nc2cc3ccccc3cc2[nH]1)Nc1ccc(F)cc1` reads 18.4%; that for `COc1ccc(-n2ccnc(SCC(=O)NCc3ccc(C)cc3)c2=O)cc1Cl`, -11.1%; that for `CN1c2ccccc2Sc2cc(N)ccc21`, -8.13%.
Take `Cc1cc(C(=O)O)c(S(C)(=O)=O)s1`: the “hERG current change (%, negative = inhibition) at 10uM” value is recorded as -1.18%.
For `CNc1ncnc2c1ncn2[C@@H]1O[C@H](CO)[C@@H](O)[C@H]1O`, the “hERG current change (%, negative = inhibition) at 10uM” value was found to be 9.17%.
On to `CCc1ccc(CN(C(=O)c2ccco2)C2CCS(=O)(=O)C2)cc1` (stereo not shown), for which the “hERG current change (%, negative = inhibition) at 10uM” value is -9.54%.
As for `O=C(NC1CCS(=O)(=O)C1)c1ccc(S(=O)(=O)NCC2CCCO2)cc1` (stereo not shown), the “hERG current change (%, negative = inhibition) at 10uM” value is -3.14%.
The result for `CCc1nc(CN2CCN(c3ccc(C(F)(F)F)cn3)CC2)c(C)[nH]1` reads -55.6%.
On to `CCN1CCN(C(=O)CN(c2ccc(C)cc2)S(C)(=O)=O)CC1`, for which the “hERG current change (%, negative = inhibition) at 10uM” value came to 15.8%.
Consider `CS(=O)(=O)N(CC(=O)N1CCN(c2ccc(F)cc2)CC1)c1ccc(F)c(Cl)c1`, for which the “hERG current change (%, negative = inhibition) at 10uM” value was -35.4%.
Take `Cc1ccc(CNC(=O)CCS(=O)(=O)c2cccc3nonc23)cc1`: the “hERG current change (%, negative = inhibition) at 10uM” value is reported as -4.76%.
For the compound `Nc1ccc(S(=O)(=O)NNC(=O)C(=O)NNc2ccccn2)cc1`, the “hERG current change (%, negative = inhibition) at 10uM” value came to 8.41%.
For the compound `COC(=O)c1cccnc1NC(=S)NNC(=O)c1ccncc1`, the “hERG current change (%, negative = inhibition) at 10uM” value stood at 8.49%.
Turning to `CCOC(=O)c1ccc[n+](CC(=O)c2ccccc2)c1.[Br-]`, the “hERG current change (%, negative = inhibition) at 10uM” value is listed as -2.44%.
For the compound `O=C(NCc1ccccc1F)C1CCCN1C(=O)Nc1ccc(F)cc1` (stereo not shown), the “hERG current change (%, negative = inhibition) at 10uM” value was 9.24%.
As for `CCCc1cc(=O)oc2cc(OCc3cc(OC)c(OC)c(OC)c3)c(Cl)cc12`, the “hERG current change (%, negative = inhibition) at 10uM” value is given as 17.4%.
For the compound `Fc1ccc(Nc2c(-c3ccco3)nc3ccccn23)cc1`, the “hERG current change (%, negative = inhibition) at 10uM” value is recorded as -13.7%.
As for `CN(C)c1ccc(/C=C(/NC(=O)c2ccccc2Cl)C(=O)NCCN2CCOCC2)cc1`, the “hERG current change (%, negative = inhibition) at 10uM” value is -2.28%.
The result for `COc1ccc(N(C(C)C(=O)Nc2cccnc2)S(C)(=O)=O)cc1` (stereo not shown) reads 2.3%.
Take `O=C(COc1ccc(F)cc1Cl)Nc1nc(-c2ccccn2)cs1`: the “hERG current change (%, negative = inhibition) at 10uM” value is listed as 18.9%.
For the compound `O=C1CSC(c2ccc([N+](=O)[O-])cc2)N1C1CCCCC1` (stereo not shown), the “hERG current change (%, negative = inhibition) at 10uM” value is reported as -47.4%.
On to `CC1=CC2=NC(=O)CC(C)(C(=O)N(CC(=O)NC3CCCC3)Cc3ccccc3)N2C=C1` (stereo not shown), for which the “hERG current change (%, negative = inhibition) at 10uM” value is listed as 9.18%.
Under `Cc1nnc(SCC(=O)NCc2ccccc2)n1-c1ccccc1` stands 17.5%; under `COc1cccc(C2Nc3cccc4cccc(c34)N2)c1`, -26.2%.
Regarding `Cc1noc(C)c1S(=O)(=O)N1CCC(C(=O)N2CCN(C3CCCC3)CC2)CC1`, the “hERG current change (%, negative = inhibition) at 10uM” value is listed as 6.31%.
Take `O=C(CSc1nc(-c2ccccc2)cs1)NCc1ccco1`: the “hERG current change (%, negative = inhibition) at 10uM” value is -14.9%.
Under `COc1ccc(NC(=O)c2c(C)noc2C(C)C)cc1S(=O)(=O)N1CCCCC1` stands -2.7%; under `COC(C(=O)Nc1ccnn1C1CCN(Cc2ccc(CO)o2)CC1)c1ccccc1` (stereo not shown), 3.28%; under `CCn1c(O)c2ccc(C(=O)N=NC(=O)c3ccccc3)cc2c1O`, 13.1%.
Consider `COc1ccc2nc(S(=O)Cc3ncc(C)c(OC)c3C)[nH]c2c1` (stereo not shown), for which the “hERG current change (%, negative = inhibition) at 10uM” value was 4.04%.
Under `CC(C)C(NC(=O)C1CCCCC1)C(=O)Nc1ccc2c(c1)OCCO2` (stereo not shown) stands -1.07%; under `CC1CN(C(=O)c2ccc(S(=O)(=O)Nc3cccc(C(F)(F)F)c3)cc2)CC(C)O1` (stereo not shown), -3.52%; under `Cc1ccc(C)c(NC(=O)C[n+]2ccccc2)c1.[Cl-]`, 4.06%.
Consider `COc1ccc(CCC2(C)NC(=O)N(C(C)C(=O)Nc3ccccc3F)C2=O)cc1` (stereo not shown), for which the “hERG current change (%, negative = inhibition) at 10uM” value is recorded as -38.9%.
As for `Cc1cnc(C(=O)OCC(=O)N2CCc3ccccc3C2)cn1`, the “hERG current change (%, negative = inhibition) at 10uM” value was 12%.
In the case of `CCNc1nc(Cl)nc(NNC(=O)C(C)Oc2ccccc2)n1` (stereo not shown), the “hERG current change (%, negative = inhibition) at 10uM” value came to 5.15%.
As to `CCC(C)n1cnc2c(c1=O)c1nc3ccccc3nc1n2Cc1ccccc1OC` (stereo not shown), the “hERG current change (%, negative = inhibition) at 10uM” value is 15.5%.
The result for `O=C(c1c(Cl)cccc1Cl)N1CCN(c2ccccn2)CC1` reads -22.5%; that for `N#CC1=C(N)Oc2cc(N)ccc2C1c1cccc(Br)c1` (stereo not shown), -13.7%.
As to `Cc1cc(C)c2c(CC(=O)NC(C)C)coc2c1`, the “hERG current change (%, negative = inhibition) at 10uM” value is recorded as 14.9%.
As for `COc1ccccc1CNC(=O)CCNS(=O)(=O)c1cc(Br)cnc1N`, the “hERG current change (%, negative = inhibition) at 10uM” value is reported as -5.47%.
Take `CCN(CC)C(=O)CSc1nc2c(sc(=S)n2Cc2ccco2)c(=O)n1-c1ccccc1`: the “hERG current change (%, negative = inhibition) at 10uM” value is listed as -29.4%.
Under `CC1CCCCC1NC(=O)CCCn1c(=S)[nH]c2ccsc2c1=O` (stereo not shown) stands 12.9%; under `O=C1CC(C(=O)Nc2ccc(F)cc2)n2cnnc2N1` (stereo not shown), -5.71%.
`CC(=O)c1cnn(-c2c(Cl)cc(Cl)cc2Cl)c1C`: the “hERG current change (%, negative = inhibition) at 10uM” value was -6.26%.
On to `CC(=O)Nc1nc(NCc2ccccc2Cl)n(-c2ccccc2)n1`, for which the “hERG current change (%, negative = inhibition) at 10uM” value turned out to be 8.06%.
As to `O=C(NCCc1ccncc1)Nc1ccccc1Cl`, the “hERG current change (%, negative = inhibition) at 10uM” value is on record as -6.18%.
Take `Cc1ccc(C(=O)NC(=S)NNC(=O)COc2ccc([N+](=O)[O-])cc2)cc1`: the “hERG current change (%, negative = inhibition) at 10uM” value was determined as 3.49%.
In the case of `COC(=O)c1sc2nc(C)nc(SCC(=O)C(C)(C)C)c2c1C`, the “hERG current change (%, negative = inhibition) at 10uM” value is reported as 24.5%.
On to `CCOc1ccc(-c2cc(C(=O)NN=C3CCN(C)CC3)[nH]n2)cc1`, for which the “hERG current change (%, negative = inhibition) at 10uM” value is listed as -5.35%.
Take `COc1cccc(NC(=O)CSc2ccccn2)c1`: the “hERG current change (%, negative = inhibition) at 10uM” value is on record as -1.4%.
For the compound `COc1ccc(Nc2sc(C(=O)c3ccc(Cl)cc3)c(N)c2C(=O)Nc2ccccc2OC)cc1`, the “hERG current change (%, negative = inhibition) at 10uM” value worked out at 0.252%.
As to `Cc1nn(C)cc1C(C)NC(=O)c1cc(COc2cccc3cnccc23)on1` (stereo not shown), the “hERG current change (%, negative = inhibition) at 10uM” value was determined as 13.9%.
For `Brc1ccc(-c2nnc(Cc3ccccc3)o2)cc1`, the “hERG current change (%, negative = inhibition) at 10uM” value was -8.24%.
`Nc1ccn(CC(=O)N[C@H](CO)Cc2c[nH]c3ccccc23)c(=O)n1`: the “hERG current change (%, negative = inhibition) at 10uM” value is recorded as 34.2%.
Take `O=C(NC(=S)NCc1cccnc1)c1ccccc1[N+](=O)[O-]`: the “hERG current change (%, negative = inhibition) at 10uM” value is 24.5%.
Under `O=C(Cc1ccc(Cl)cc1)c1c[nH]c(C(=O)NCc2cccnc2)c1` stands -0.756%.
For the compound `CN(C)S(=O)(=O)c1ccc(-c2csnn2)s1`, the “hERG current change (%, negative = inhibition) at 10uM” value is recorded as -5.75%.
As for `CCCc1nc(SCC(=O)N2CCCC2)c2ccccc2n1`, the “hERG current change (%, negative = inhibition) at 10uM” value is -46.6%.
Turning to `Cc1ccc(N(CC(=O)NCc2ccc(F)cc2)C(=O)CCC(=O)Nc2ccccn2)cc1C`, the “hERG current change (%, negative = inhibition) at 10uM” value is reported as 5.63%.
As for `COc1cccc(-c2cc(C(=O)Nc3ccc(OC)c(OC)c3)no2)c1`, the “hERG current change (%, negative = inhibition) at 10uM” value was -8.98%.
Under `COc1ccc(N2C(=O)CC(N3CCC(O)(c4cccc(C(F)(F)F)c4)CC3)C2=O)cc1` (stereo not shown) stands -11.4%; under `COc1ccc(/C=c2\s/c(=C(/C#N)C(=O)NCc3ccco3)n(-c3ccccc3)c2=O)cc1`, 3.83%; under `CC1Cc2ccccc2N1CC(=O)c1c(N)n(Cc2ccccc2)c(=O)n(C)c1=O` (stereo not shown), -11.1%.
